Experimental data published in US10000476B2, “Pyridone derivative, pharmaceutical containing the same and methods of use thereof” (KAKEN PHARMACEUTICAL CO., LTD., priority 2011, dated 2018).
The name of at least one read-out is uncertain.

tested on: auricular oedema induced by TPA in BALB/c mice; test: Inhibition test of auricular oedema induced by single application of TPA in mouse; type: in vivo; conditions: inhibition rate of test substance / inhibition rate of etanercept (1 mg/mouse i.v.)
Protocol: Inhibition Test of Auricular Oedema Induced by Single Application of TPA (12-O-tetradecanoylphorbol-13-acetate) in Mouse (In Vivo Efficacy Test Based on TNF-α-Related Cutaneous Inflammation)
Auricular oedema was induced by applying 54 μmol/L TPA-acetone solution on both the inner and outer sides of the left ear of BALB/c mice (application volume of 54 μmol/L TPA-acetone solution is 10 μL for each side of the left ear (i.e. 1.08 nmol TPA/auricle)). For a non-induced group, acetone was similarly applied instead of the 54 μmol/L TPA-acetone solution. The test substance was dissolved and prepared in a 1 w/v % solution of acetone containing 10 vol % DMSO (topical administration vehicle), then the test solution was applied onto both the inner and outer sides of the left ear of the mice (application volume of this test solution is 10 μL for each side of the left ear) 1 hour before the TPA application. For a control group, the topical administration vehicle was similarly applied instead of the test substance solution. For an etanercept group, 0.2 mL of a 5 mg/mL etanercept solution was intravenously administered (1 mg/mouse) the day before TPA application and 1.5 hours before TPA application. For a human IgG (hIgG) group (etanercept control group), 0.2 mL of a 5 mg/mL hIgG solution was intravenously administered (1 mg/mouse). Auricle thickness was measured under ether anesthesia the day before TPA application and 6 hours after TPA application for evaluation of the auricular oedema inhibition effect of the test substance based on the increase in auricle thickness as an index.
The auricular oedema inhibition rate (%) of the test substance was calculated based on the following formula using (A) the average value of the increase in auricular thickness of the group administered with the test substance, (B) the average value of the increase in auricular thickness of the non-induced group, and (C) the average value of the increase in auricular thickness of the control group. […]

Compound | Etanercept ratio
Cc1cccn(CC2(c3ccc(F)c(F)c3)NC(=O)NC2=O)c1=O (stereo not drawn) [Compound I-10, 5-(3,4-difluorophenyl)-5-[(3-methyl-2-oxopyridin-1(2H)-yl)methyl] imidazolidine-2,4-dione] | 2.7
Cc1cc(C2(Cn3cccc(C)c3=O)NC(=O)NC2=O)ccc1OC1C=CCCC1 (stereo not drawn) [Compound I-38] | 2.9
Cc1cccn(CC2(c3ccc(OC4CCCCC4)cc3)NC(=O)NC2=O)c1=O (stereo not drawn) [Compound I-37, 5-[4-(cyclohexyloxy)phenyl]-5-[(3-methyl-2-oxopyridin-1(2H)-yl)methyl]imidazolidine-2,4-dione] | 3.9
Cc1cc(C2(Cn3cccc(C)c3=O)NC(=O)NC2=O)cc(C)c1OC1CCCC1 (stereo not drawn) [Compound I-129] | 5.1
Cc1cccn(CC2(c3ccc(Oc4ccccc4F)cc3)NC(=O)NC2=O)c1=O (stereo not drawn) [Compound I-86] | 3.4
Cc1cccn(CC2(c3ccc(Oc4ccccc4)cc3)NC(=O)NC2=O)c1=O (stereo not drawn) [Compound I-9, 5-[(3-methyl-2-oxopyridin-1(2H)-yl)methyl]-5-(4-phenoxyphenyl)imidazolidine-2,4-dione] | 3.9
Cc1cccn(CC2(c3ccc(OCc4ccccc4)cc3)NC(=O)NC2=O)c1=O (stereo not drawn) [Compound I-64] | 2.8
Cc1cccn(CC2(c3ccc(Oc4cccc(F)c4)cc3)NC(=O)NC2=O)c1=O (stereo not drawn) [Compound I-84] | 2.7
Cc1cccn(CC2(c3ccc(OC4C=CCCC4)cc3)NC(=O)NC2=O)c1=O (stereo not drawn) [Compound I-36, 5-[4-(cyclohex-2-en-1-yloxy)phenyl]-5-[(3-methyl-2-oxopyridin-1(2H)-yl)methyl]imidazolidine-2,4-dione] | 2.9
Cc1cccn(CC2(c3ccc(Sc4ccccc4)cc3)NC(=O)NC2=O)c1=O (stereo not drawn) [Compound I-102] | 2.5
Cc1cccn(CC2(c3cccc(-c4cccnc4)c3)NC(=O)NC2=O)c1=O (stereo not drawn) [Compound I-62] | 2.6
Cc1cccn(CC2(c3ccc(Oc4ccc(F)cc4)cc3)NC(=O)NC2=O)c1=O (stereo not drawn) [Compound I-85] | 3.9
Cc1cccn(CC2(c3ccc(Oc4ccc(Cl)cc4)cc3)NC(=O)NC2=O)c1=O (stereo not drawn) [Compound I-130] | 3.1
Cc1cccn(CC2(c3ccc(Cc4ccccc4)cc3)NC(=O)NC2=O)c1=O (stereo not drawn) [Compound I-40, 5-(4-benzylphenyl)-5-[(3-methyl-2-oxopyridin-1(2H)-yl)methyl]imidazolidine-2,4-dione] | 3.5
Cc1cccn(CC2(c3ccc(Cc4ccc(F)cc4)cc3)NC(=O)NC2=O)c1=O (stereo not drawn) [Compound I-41, 5-[4-(4-fluorobenzyl)phenyl]-5-[(3-methyl-2-oxopyridin-1(2H)-yl)methyl] imidazolidine-2,4-dione] | 3.6
